Experimental data reported in US20240392035A1 (DENALI THERAPEUTICS, published 2024).

Biological target: T1, recombinant human TfR apical domain (human)
T1 construct: also called recombinant TfR apical domain; transferrin receptor protein 1
Assay: SPR (Biacore), protein captured on anti-human Fab chip, human TfR apical domain injected, 1:1 Langmuir fit
Procedure: Affinities of the bispecific proteins were measured by SPR using a Biacore T200 or a Biacore 8K. Biacore™ Series S CM5 sensor chips were immobilized with monoclonal mouse anti-human IgG (Fc) antibody for HER2 affinity measurements or mouse anti-human Fab for TfR affinity measurements (human antibody or Fab capture kit from GE Healthcare). Serial 3-fold dilutions of analyte (recombinant HER2 extracellular domain or recombinant TfR apical domain) were injected at a flow rate of […]. Each sample was analyzed using a 3-minute association and a 10-minute dissociation for HER2 extracellular domain binding and a 40-second association and a 3-minute dissociation for human TfR apical domain binding. After each injection, the chip was regenerated using 3 M MgCl₂ or 50 mM glycine at pH 2.0. Binding response was corrected by subtracting the RU from a flow cell capturing an irrelevant IgG at similar density. A 1:1 Languir model of simultaneous fitting of kon and koff was used for kinetics analysis. […] The two constructs are described below.

- Kd: 490 nM
B1: Bispecific Protein #6 (bispecific antibody, human IgG1, kappa)
heavy 1: EVQLVESGGGLVQPGGSLRLSCAASGFTFTDYTMDWVRQAPGKGLEWVADVNPNSGGSIYNQRFKGRFTLSVDRSKNTLYLQMNSLRAEDTAVYYCARNLGPSFYFDYWGQGTLVTVSSASTKGPSVF[about 250 residues cut from this listing][about 200 residues cut from this listing]
heavy 2: EVQLVESGGGLVQPGGSLRLSCAASGFTFTDYTMDWVRQAPGKGLEWVADVNPNSGGSIYNQRFKGRFTLSVDRSKNTLYLQMNSLRAEDTAVYYCARNLGPSFYFDYWGQGTLVTVSSASTKGPSVF[about 450 residues with a human IgG1 Fc cut from this listing]
light: DIQMTQSPSSLSASVGDRVTITCKASQDVSIGVAWYQQKPGKAPKLLIYSASYRYTGVPSRFSGSGSGTDFTLTISSLQPEDFATYYCQQYYIYPYTFGQGTKVEIKRTVAAPSVF[about 200 residues cut from this listing]
